Reference: PubChem BioAssay AID761 (NMMLSC, 2007)
The whole screen tested about 190,000 compounds, of which about 400 (0.21%) were called active. Inconclusive means that the source gave no clear call. Such entries were picked first, then a sample of the others.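 Rule for the calls: active = percent activity GTP binding at least 20 points away from the 100% baseline, either down as inhibitor or up as activator; inconclusive = compound flagged as likely green fluorescent from well-wide comparison; inactive = the rest.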

These molecules were tested against Cell division control protein 42 homolog (Homo sapiens) (UniProt P60953) (assay: wildtype Cdc42 fluorescent GTP binding changes, either direction – biochemical, multiplex bead flow cytometry, Bodipy-GTP, primary screen (AID 761;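 note: median bead fluorescence of bound Bodipy-FL-GTP at 100 nM; 0% = excess unlabeled GTP control and 100% = no compound control; below 100% means less GTP binding so inhibitor and above means activator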)). Conditions: GST-Cdc42 beads, at 10 µM, actives lie on both sides.
Chain of UniProt P60953 (P60953 whole entry, looked up): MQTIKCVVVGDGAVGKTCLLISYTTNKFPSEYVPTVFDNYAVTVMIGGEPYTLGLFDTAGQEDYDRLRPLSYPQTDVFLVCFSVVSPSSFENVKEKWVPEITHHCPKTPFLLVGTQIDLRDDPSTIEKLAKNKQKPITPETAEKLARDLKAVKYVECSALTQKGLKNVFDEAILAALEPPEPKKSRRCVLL

| SMILES | percent activity (GTP binding) |
| --- | --- |
| C(=N\N1CCN(Cc2ccccc2)CC1)/c1cccs1 | inconclusive: 96% |
| O=C(O)C1CCCN1C(=O)OCc1ccccc1 (stereo not drawn) | active: 128% [activator] |
| COc1cccc(=O)c2c(C)n(CC(=O)c3ccccc3)c(C)c12 | inconclusive: 92% |
| Cc1cc(C)n2nc(SCCOc3ccc(F)cc3)nc2n1 | active: 68% |
| O=C(O)C(Cc1c[nH]c2ccccc12)NS(=O)(=O)c1ccc2ccccc2c1 (stereo not drawn) | inconclusive: 88% |
| O=C(NCC(c1cccnc1)N1CCOCC1)c1ccco1 (stereo not drawn) | inconclusive: 94% |
| Clc1nc2sccn2c1/C=N/n1cnc2ccccc21 | inconclusive: 90% |
| O=C(NC1CCCCC1)c1noc2c1CCCCC2 | inactive: 114% |
| O=C(CNC(=S)NC(=O)C1CCCCC1)c1ccccc1 | inconclusive: 104% |
| CN1CCS/C1=C/C=C1/SC(=S)N(Cc2ccccc2)C1=O | inactive: 95% |
| CCOC(=O)c1c(C)[nH]c(-c2csc(C)n2)c1C | inconclusive: 96% |
| COC(=O)CSc1ccc(C#N)c(SCC(=O)OC)c1 | inconclusive: 106% |
| CS(=O)(=O)N(CC(=O)NC1CC2CCC1C2)c1ccc(Oc2ccccc2)cc1 (stereo not drawn) | inactive: 92% |
| COc1cccc(OCc2nnc(SCC(=O)NCc3ccco3)n2C)c1 | inconclusive: 115% |
| COc1ccc(/C=N/NC(=O)c2c([N+](=O)[O-])c(C)nn2C)cc1 | inconclusive: 102% |
| CCOc1ccc(C(=O)Nc2ccc(N3CCN(S(C)(=O)=O)CC3)cc2)cc1[N+](=O)[O-] | inconclusive: 95% |
| CC[C@H](C)[C@H](NC(N)=O)C(=O)NCCc1ccc(OC)c(OC)c1 | inactive: 95% |
| Nc1c(S(=O)(=O)c2cccc(Cl)c2)c2nc3ccccc3nc2n1/N=C/c1ccc(O)c(O)c1 | active: 63% |
| COCCn1c(SCc2nc3scc(-c4ccc(Cl)cc4)c3c(=O)[nH]2)nnc1-c1cccc(C)c1 | inconclusive: 97% |
| CC(=O)c1sc(NC(=O)c2ccc(C(C)(C)C)cc2)nc1C | inactive: 96% |

| SMILES | percent activity (GTP binding) |
| --- | --- |
| CC(C)CCN1CN(S(=O)(=O)c2cccs2)c2nc3ccccc3nc21 | inconclusive: 105% |
| Cc1ccc(OCC(=O)Nc2ccccc2[N+](=O)[O-])c(Br)c1 | inactive: 91% |
| Cc1cc(/C=c2\sc3nc4ccccc4n3c2=O)c(C)n1-c1ccc(C(=O)O)cc1 | active: 78% |
| O=S(=O)(/N=C(/Nc1ccccc1)c1ccccc1O)c1ccccc1 | inactive: 96% |
| O=C(Cc1coc(-c2ccc(F)cc2)n1)NCc1ccccc1 | inconclusive: 107% |
| O=C(Oc1ccc2c(c1)O/C(=C\c1ccncc1)C2=O)c1ccccc1 | inconclusive: 98% |
| COc1ccc(N(CC(=O)Nc2ccccc2C(=O)O)S(=O)(=O)c2ccc(C)c([N+](=O)[O-])c2)cc1 | inconclusive: 89% |
| O=C1OC(Oc2ccccc2)(c2ccccc2)c2ccccc21 (stereo not drawn) | inconclusive: 110% |
| O=C(CSc1nnc(NC(=O)c2ccc(S(=O)(=O)N3CCOCC3)cc2)s1)Nc1ccccc1C(F)(F)F | inactive: 98% |
| O=C(/C=C/c1ccc([N+](=O)[O-])cc1)NC1CC2CCC1C2 (stereo not drawn) | inconclusive: 95% |
| N/C(=N\OC(=O)C1CCCCC1)c1cccnc1 | inconclusive: 104% |
| Cc1ccccc1C(=O)NC1CCN(Cc2nnnn2Cc2ccccc2)CC1 | inconclusive: 107% |
| CCN1/C(=C/C=C/c2oc3ccc(-c4ccccc4)cc3[n+]2CC)Oc2ccc(-c3ccccc3)cc21 | inconclusive: 852% |
| Cc1cc(C)c(NC(=O)Cn2cc3c(n2)CCCC3)c(C)c1 | inconclusive: 100% |
| Cc1cc(C)nc(NNC(=O)NC2CCCCC2)n1 | inconclusive: 93% |
| Cc1ccc(NC(=O)C2CC(=O)N(c3ccc4c5c(cccc35)CC4)C2)cc1 (stereo not drawn) | inconclusive: 95% |
| Cn1nc(C(F)(F)F)c(C(=O)Nc2ccc(F)cc2F)c1Sc1ccc(C(F)(F)F)cc1 | inactive: 105% |
| CCn1c(SCC(=O)Nc2nc3ccccc3s2)nnc1-c1ccc(Br)cc1 | inconclusive: 106% |
| S=C(NCc1ccc(Cl)cc1)NN1CCOCC1 | inactive: 95% |
| CCCOc1ccc(N2CC(C(=O)Nc3ccccc3C(=O)NCc3ccco3)CC2=O)cc1 (stereo not drawn) | inconclusive: 93% |

| SMILES | percent activity (GTP binding) |
| --- | --- |
| COc1ccc(/C=C2\CCCC3C2=NN(C(=O)c2scnc2C)C3c2ccc(OC)c(OC)c2)cc1OC (stereo not drawn) | active: 66% |
| Cc1ccccc1-c1nnc(NC(=O)c2ccc(N3C(=O)CCC3=O)cc2)s1 | inactive: 109% |
| Cc1cc(C)cc(-c2nnc(SCC(=O)c3ccc4c(c3)OCCO4)o2)c1 | inconclusive: 88% |
| Cc1ccc(NC(=O)CN2C(=O)S/C(=C\c3ccc(-c4cccc(C(=O)O)c4C)o3)C2=O)cc1C | active: 79% |
| CC1C/C(=N/NC(=O)c2cccc(F)c2)c2ccc(O)cc2C1 (stereo not drawn) | inactive: 101% |
| CCC(C)n1c(/C=C/c2ccccc2)nc2ccccc21 (stereo not drawn) | inconclusive: 104% |
| COc1ccc(NC(=O)CSc2ccc3c4c(cccc24)C(=O)c2ccccc2-3)cc1 | inconclusive: 119% |
| O=C(O)c1ccccc1S(=O)(=O)Cc1ccccc1 | inconclusive: 103% |
| CC(C)c1ccc(NC(=S)NCc2ccc3c(c2)OCO3)cc1 | inconclusive: 93% |
| O=C(CSc1nc2ccccc2c(=O)n1-c1ccccc1)NC(=O)CN1CCCC1=O | inconclusive: 96% |
| CCc1ccc(NC(=O)C(=O)NCc2ccccn2)cc1 | inactive: 98% |
| CN(Cc1cccnc1)C(=O)CC1C(=O)NCCN1Cc1ccc(-c2ccccc2)cc1 (stereo not drawn) | inconclusive: 92% |
| N#C/C(=C\c1ccco1)c1nc2ccccc2s1 | inactive: 98% |
| O=C(CSc1nnc(NC(=O)c2ccccc2Cl)s1)Nc1ccc2c(c1)oc1ccccc12 | inconclusive: 92% |
| C=CCSC1=N/C(=C\c2cc(OCC)c(OC(C)=O)c([N+](=O)[O-])c2)C(=O)S1 | inactive: 89% |
| O=C(Cc1ccccc1)NNC(=O)Nc1ccccc1 | inactive: 101% |
| CC(C)CNC(=O)CN(c1cccc(Cl)c1)S(C)(=O)=O | inactive: 97% |
| Cc1ccc(-c2nn(C)c(=O)c3ccccc23)cc1CNC(=O)c1ccco1 | inactive: 109% |
